# Reference: the supplement of paper PMC8728848
# This is one part of the list.
# B1: cupB6 (Pseudomonas aeruginosa), Q02SP7 (protein)
# chain: MSMRLFPGRVSLRRRPGAQARQALVLGLCCLTGGQAWALNEVALNCSFGNGKGLPWRVVNELTSGTAKGTVLFARPVSLFLSYKPQASQEAHELVLGGNWSGVGYPGPYGTVASDVKGIGYRISVDAQDGVKRVIPVDNQPHALDKRVTSFSGSTTSDYLQELVLTVDPGELPAGDLKVTSVSGSATLNLWAVDRLKGEASIGSVLAVPADNYPTGVCRKPYSLIGPASIAIGGGPPPPPIPKKCKVEVGREINVKLGSVALKNFPRVNDTSTERSFDISLSECAALAKPEIAFRDKYVSAQQADPTILSLKSGGAAGFGIVVKNGLDQQRIRFDGTPYPMRRVGDSADLPLSAAYIRIGAEGELKAGVADGAAEFTFTFP
# Columns and labels:
# Assay in all cases: glycan array binding signal (z-score within array); higher = stronger binding
# Details in all cases: glycan notation: IUPAC condensed, linker removed
# [1] = biological target: GalNAc(b1-3)Gal(a1-4)Gal(b1-4)GlcNAc
# How it was run: (§1)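 Arrays were curated from the Consortium for Functional Glycomics database, 3228 in total, and kept only where the protein sequence was available. Binding is expressed as a within-array Z-score. This score was averaged across arrays of the same protein sequence at different concentrations or buffers and across linkers, and negative values can be read as non-binding.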
# [2] = biological target: GalNAc(b1-3)Gal(a1-4)Gal(b1-4)GlcNAc(b1-3)Gal(b1-4)Glc
# How it was run: as §1
# [3] = biological target: GalNAc(b1-3)Gal(a1-6)Gal(b1-4)Glc
# How it was run: as §1
# GalNAc(b1-3)GalNAc = biological target: GalNAc(b1-3)GalNAc
# How it was run: as §1
# GalNAc(b1-4)GlcNAc = biological target: GalNAc(b1-4)GlcNAc
# How it was run: as §1
# [4] = biological target: GalNAc(b1-4)GlcNAc(b1-2)Man(a1-3)[GalNAc(b1-4)GlcNAc(b1-2)Man(a1-6)]Man(b1-4)GlcNAc(b1-4)GlcNAc
# How it was run: as §1
# Glc(a1-4)Glc = biological target: Glc(a1-4)Glc
# How it was run: as §1
# Glc(a1-6)Glc(a1-6)Glc = biological target: Glc(a1-6)Glc(a1-6)Glc
# How it was run: as §1
# Glc(b1-4)Glc = biological target: Glc(b1-4)Glc
# How it was run: as §1
# Glc(b1-6)Glc = biological target: Glc(b1-6)Glc
# How it was run: as §1
# GlcA(b1-3)Gal = biological target: GlcA(b1-3)Gal
# How it was run: as §1
# GlcA(b1-3)GlcNAc = biological target: GlcA(b1-3)GlcNAc
# How it was run: as §1
# GlcA(b1-6)Gal = biological target: GlcA(b1-6)Gal
# How it was run: as §1
# [5] = biological target: GlcNAc(a1-3)Gal(b1-4)GlcNAc
# How it was run: as §1
# [6] = biological target: GlcNAc(a1-4)Gal(b1-3)GlcNAc
# How it was run: as §1
# [7] = biological target: GlcNAc(a1-4)Gal(b1-4)GalNAc
# How it was run: as §1
# [8] = biological target: GlcNAc(a1-4)Gal(b1-4)GlcNAc
# How it was run: as §1
# [9] = biological target: GlcNAc(a1-4)Gal(b1-4)GlcNAc(b1-3)Gal(b1-4)Glc
# How it was run: as §1
# [10] = biological target: GlcNAc(a1-4)Gal(b1-4)GlcNAc(b1-3)Gal(b1-4)GlcNAc
# How it was run: as §1
# [11] = biological target: GlcNAc(a1-4)Gal(b1-4)GlcNAc(b1-3)Gal(b1-4)GlcNAc(b1-3)Gal(b1-4)GlcNAc
# How it was run: as §1
# [12] = biological target: GlcNAc(a1-4)Gal(b1-4)GlcNAc(b1-3)Gal(b1-4)[Fuc(a1-3)]GlcNAc(b1-3)Gal(b1-4)[Fuc(a1-3)]GlcNAc
# How it was run: as §1
# [13] = biological target: GlcNAc(a1-6)Gal(b1-4)GlcNAc
# How it was run: as §1
# [14] = biological target: GlcNAc(b1-2)Gal(b1-3)GalNAc
# How it was run: as §1
# [15] = biological target: GlcNAc(b1-2)Man(a1-3)[GlcNAc(b1-2)Man(a1-6)]Man(b1-4)GlcNAc(b1-4)GlcNAc
# How it was run: as §1
# [16] = biological target: GlcNAc(b1-2)Man(a1-3)[GlcNAc(b1-2)Man(a1-6)]Man(b1-4)GlcNAc(b1-4)[Fuc(a1-6)]GlcNAc
# How it was run: as §1
# [17] = biological target: GlcNAc(b1-2)[GlcNAc(b1-4)]Man(a1-3)[GlcNAc(b1-2)Man(a1-6)]Man(b1-4)GlcNAc(b1-4)GlcNAc
# How it was run: as §1
# GlcNAc(b1-3)Gal = biological target: GlcNAc(b1-3)Gal
# How it was run: as §1
# [18] = biological target: GlcNAc(b1-3)Gal(b1-3)GalNAc
# How it was run: as §1
# GlcNAc(b1-3)Gal(b1-4)Glc = biological target: GlcNAc(b1-3)Gal(b1-4)Glc
# How it was run: as §1
# [19] = biological target: GlcNAc(b1-3)Gal(b1-4)GlcNAc
# How it was run: as §1
# [20] = biological target: GlcNAc(b1-3)Gal(b1-4)GlcNAc(b1-3)Gal(b1-4)GlcNAc
# How it was run: as §1
# GlcNAc(b1-3)GalNAc = biological target: GlcNAc(b1-3)GalNAc
# How it was run: as §1
# GlcNAc(b1-3)Man = biological target: GlcNAc(b1-3)Man
# How it was run: as §1
# [21] = biological target: GlcNAc(b1-3)[GlcNAc(b1-4)][GlcNAc(b1-6)]GlcNAc
# How it was run: as §1
# [22] = biological target: GlcNAc(b1-3)[GlcNAc(b1-6)]Gal(b1-4)GlcNAc
# How it was run: as §1
# [23] = biological target: GlcNAc(b1-3)[GlcNAc(b1-6)]GalNAc
# How it was run: as §1
# [24] = biological target: GlcNAc(b1-4)Gal(b1-4)GlcNAc
# How it was run: as §1
# GlcNAc(b1-4)GlcNAc = biological target: GlcNAc(b1-4)GlcNAc
# How it was run: as §1
# [25] = biological target: GlcNAc(b1-4)GlcNAc(b1-4)GlcNAc
# How it was run: as §1
# [26] = biological target: GlcNAc(b1-4)GlcNAc(b1-4)GlcNAc(b1-4)GlcNAc(b1-4)GlcNAc
# How it was run: as §1
# [27] = biological target: GlcNAc(b1-4)GlcNAc(b1-4)GlcNAc(b1-4)GlcNAc(b1-4)GlcNAc(b1-4)GlcNAc
# How it was run: as §1
# [28] = biological target: GlcNAc(b1-4)[GlcNAc(b1-6)]GalNAc
# How it was run: as §1
# [29] = biological target: GlcNAc(b1-6)Gal(b1-4)GlcNAc
# How it was run: as §1
# GlcNAc(b1-6)GalNAc = biological target: GlcNAc(b1-6)GalNAc
# How it was run: as §1
# GlcNAc3Prop(b1-4)GlcNAc = biological target: GlcNAc3Prop(b1-4)GlcNAc
# How it was run: as §1
binder,measurement,setting,value
B1,glycan array binding signal (z-score),[1],-0.13
same,glycan array binding signal (z-score),[2],-0.12
same,glycan array binding signal (z-score),[3],0.007
same,glycan array binding signal (z-score),GalNAc(b1-3)GalNAc,-0.138
same,glycan array binding signal (z-score),GalNAc(b1-4)GlcNAc,-0.099
same,glycan array binding signal (z-score),[4],0.27
same,glycan array binding signal (z-score),Glc(a1-4)Glc,-0.049
same,glycan array binding signal (z-score),Glc(a1-6)Glc(a1-6)Glc,-0.127
same,glycan array binding signal (z-score),Glc(b1-4)Glc,-0.188
same,glycan array binding signal (z-score),Glc(b1-6)Glc,-0.14
same,glycan array binding signal (z-score),GlcA(b1-3)Gal,-0.087
same,glycan array binding signal (z-score),GlcA(b1-3)GlcNAc,-0.167
same,glycan array binding signal (z-score),GlcA(b1-6)Gal,0.029
same,glycan array binding signal (z-score),[5],-0.184
same,glycan array binding signal (z-score),[6],-0.118
same,glycan array binding signal (z-score),[7],-0.083
same,glycan array binding signal (z-score),[8],0.139
same,glycan array binding signal (z-score),[9],0.057
same,glycan array binding signal (z-score),[10],0.017
same,glycan array binding signal (z-score),[11],-0.161
same,glycan array binding signal (z-score),[12],0.164
same,glycan array binding signal (z-score),[13],-0.197
same,glycan array binding signal (z-score),[14],-0.181
same,glycan array binding signal (z-score),[15],-0.061
same,glycan array binding signal (z-score),[16],0.318
same,glycan array binding signal (z-score),[17],-0.121
same,glycan array binding signal (z-score),GlcNAc(b1-3)Gal,-0.046
same,glycan array binding signal (z-score),[18],-0.209
same,glycan array binding signal (z-score),GlcNAc(b1-3)Gal(b1-4)Glc,-0.188
same,glycan array binding signal (z-score),[19],-0.113
same,glycan array binding signal (z-score),[20],0.022
same,glycan array binding signal (z-score),GlcNAc(b1-3)GalNAc,-0.094
same,glycan array binding signal (z-score),GlcNAc(b1-3)Man,-0.22
same,glycan array binding signal (z-score),[21],-0.001
same,glycan array binding signal (z-score),[22],-0.048
same,glycan array binding signal (z-score),[23],-0.097
same,glycan array binding signal (z-score),[24],-0.192
same,glycan array binding signal (z-score),GlcNAc(b1-4)GlcNAc,-0.037
same,glycan array binding signal (z-score),[25],-0.07
same,glycan array binding signal (z-score),[26],-0.039
same,glycan array binding signal (z-score),[27],-0.162
same,glycan array binding signal (z-score),[28],-0.217
same,glycan array binding signal (z-score),[29],-0.05
same,glycan array binding signal (z-score),GlcNAc(b1-6)GalNAc,-0.194
same,glycan array binding signal (z-score),GlcNAc3Prop(b1-4)GlcNAc,-0.094
